Assay results as given in paper PMC8985225.
Values joined by “and” are separate entries in the source; they are usually repeats but may differ in a detail not shown here. Equal entries are not always repeated.

Biological target: Ca^2+/CaM-dependent kinase II α (CaMKIIα) holoenzyme (rodent) (UniProt P11275)
Test: negative-stain single-particle EM; purified holoenzymes diluted in 50 mM HEPES pH 7.4, 120 mM KCl, 0.5 mM EGTA (~0.35 μM), stained with uranyl formate; basal state; focused reference-free 2D classification of the hub domain (15 nm mask, no symmetry applied); stoichiometry of the holoenzyme

In the case of “Ca^2+/CaM-dependent kinase II α (CaMKIIα) holoenzyme (a stretch of the chain, letters omitted) (enzyme; other documents disagree on this pair)”, the percent of holoenzyme particles that are 12-mers is reported as 88%, the percent of holoenzyme particles that are 14-mers is reported as 5.2% and the stoichiometry N is reported as 12 and 14.
